Source: patent US20220162314A1 (ASHER BIOTHERAPEUTICS, published 2022)
Residue numbers refer to the chain shown, from its start.

B1: xhCD8v14-IL2m4, format A (other)
light chain: EIVLTQSPGTLSLSPGERATLS[skipping about 80 residues][skipping about 120 residues]
heavy chain with IL2 fusion: EVQLVESGGGLVQPGGSLRLSCAASGFTFSSYAMSWVRQAPGKGLEWVSDISYAGGSTAYADSVKGRFTISRDNAKNSLYLQMNSLRAEDTAVYYCARSNAYAWDDALDIWGQGTMVTVSSASTKGPSVFPLAPSSKSTSGGTAALGCLVKDYFPEPVTVSWNSGALTSGVHTFPAVLQSSGLYSLSSVVTVPSSSLGTQTYICNVNHKPSNTKVDKKVEPKSCDKTHTCPPCPAPEAAGAPSVFLFPPKPKDTLMISRTPEVTCVVVDVSHEDPEVKFNWYVDGVEVHNAKTKPREEQYNSTYRVVSVLTVLHQDWLNGKEYKCKVSNKALPAPIEKTISKAKGQPREPQVYTLPPCREEMTKNQVSLSCAVKGFYPSDIAVEWESNGQPENNYKTTPPVLDSDGSFFLVSKLTVDKSRWQQGNVFSCSVMHEALHNHYTQKSLSLSPGSGGGGSGGGGSGGGGSAPTSSSTKKTQLQLEELLLDLQMILNGINNYKNPKLTEMLTAKFYMPKKATELKHLQCLEEELKPLEEVLNLAQSKNFHLRPRDLISNINVIVLELKGSETTFMCEYADETATIVEFLNRWITFAQSIISTLT
heavy chain without IL2 fusion: EVQLVESGGGLVQPGGSLRLSCAASGFTFSSYAMSWVRQAPGKGLEWVSDISYAGGSTAYADSVKGRFTISRDNAKNSLYLQMNSLRAEDTAVYYCARSNAYAWDDALDIWGQGTMVTVSSASTKGPSVFPLAPSSKSTSGGTAALGCLVKDYFPEPVTVSWNSGALTSGVHTFPAVLQSSGLYSLSSVVTVPSSSLGTQTYICNVNHKPSNTKVDKKVEPKSCDKTHTCPPCPAPEAAGAPSVFLFPPKPKDTLMISRTPEVTCVVVDVSHEDPEVKFNWYVDGVEVHNAKTKPREEQYNSTYRVVSVLTVLHQDWLNGKEYKCKVSNKALPAPIEKTISKAKGQPREPQVCTLPPSREEMTKNQVSLWCLVKGFYPSDIAVEWESNGQPENNYKTTPPVLDSDGSFFLYSKLTVDKSRWQQGNVFSCSVMHEALHNHYTQKSLSLSPG
B2: xhCD8v14-IL2m1, format A (other)
light chain: EIVLTQSPGTLSLSPGERATLS[skipping about 80 residues][skipping about 120 residues]
heavy chain with IL2 fusion: B1 heavy chain with IL2 fusion with E482H, N554A
heavy chain without IL2 fusion: B1 heavy chain without IL2 fusion
B3: xhCD8v11-IL2m4, format A (other)
light chain: EIVLTQSPGTLSLSPGERATLS[skipping about 80 residues][skipping about 120 residues]
heavy chain with IL2 fusion: B1 heavy chain with IL2 fusion with S52T, M116L
heavy chain without IL2 fusion: B1 heavy chain without IL2 fusion with S52T, M116L

The binders below were run against T1, CD8 on human CD8+ T cells (CD3+CD8a+CD8b+ cells of hPBMCs) (human, UniProt P01732 22-235; P10966 22-210) (assay: flow cytometry binding to CD8+ T cells; ratio of the EC50 of format D to the EC50 of format A drawn as a bar on a log axis).
T1 construct: whole, on cells; also called CD8ab+ T cells
T1 sequence (P01732 22-235, chain 1 of 2): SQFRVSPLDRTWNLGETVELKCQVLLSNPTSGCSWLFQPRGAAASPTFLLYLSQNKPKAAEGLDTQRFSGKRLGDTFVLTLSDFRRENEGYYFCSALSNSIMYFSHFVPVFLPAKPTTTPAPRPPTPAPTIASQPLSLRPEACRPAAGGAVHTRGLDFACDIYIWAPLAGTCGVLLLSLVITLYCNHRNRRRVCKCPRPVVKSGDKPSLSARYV
T1 sequence (P10966 22-210, chain 2 of 2, further chain): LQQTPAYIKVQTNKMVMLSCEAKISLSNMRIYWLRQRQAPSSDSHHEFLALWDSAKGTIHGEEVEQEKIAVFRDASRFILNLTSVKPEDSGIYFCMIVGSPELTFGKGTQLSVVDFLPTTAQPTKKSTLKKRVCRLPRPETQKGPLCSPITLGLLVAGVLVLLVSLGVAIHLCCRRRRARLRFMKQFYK

binding result	Binder
binds	B1
binds	B2
binds	B3
